In PubChem BioAssay AID1645882 (National Center for Advancing Translational Sciences (NCATS), 2021):
Hit rate of the full screen: of about 16,000 compounds, about 120 (0.75%) were called active. Not shown: some 4% with an inconclusive outcome. Calls come from the whole dose curve; as a rule, active = well fitted inhibition curve with a large enough effect; inconclusive = small, poorly fitted or top-dose-only effect; inactive = no such curve, though single readings can be large or run the other way. The list shows a part of the results.

Each compound was assayed against Rap guanine nucleotide exchange factor 3 (Homo sapiens) (UniProt O95398) (assay: Validation qHTS for antagonist of cAMP-regulated guanine nucleotide exchange factor 3 (EPAC1)). Conditions: EPAC1 Rap1B-BODIPY-GDP exchange, fluorescence; series mostly up to 150 µM; activity change, negative = inhibition: at the top concentration.
How it was run: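 EPAC1 (100 nM) mixed with 250 nM RAP1B-BODIPY-GDP and 50 uM GDP; compounds in concentration series, 5 min at room temperature. Fluorescence (ex 480/em 540 nm) read every 5 min for 30 min; normalized to ATA control and DMSO.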
Note: nearly all actives have a fitted effect of over 75% in size.
Potency is the fitted concentration of half-maximal effect.

Sequence of UniProt O95398 (O95398 whole entry, looked up): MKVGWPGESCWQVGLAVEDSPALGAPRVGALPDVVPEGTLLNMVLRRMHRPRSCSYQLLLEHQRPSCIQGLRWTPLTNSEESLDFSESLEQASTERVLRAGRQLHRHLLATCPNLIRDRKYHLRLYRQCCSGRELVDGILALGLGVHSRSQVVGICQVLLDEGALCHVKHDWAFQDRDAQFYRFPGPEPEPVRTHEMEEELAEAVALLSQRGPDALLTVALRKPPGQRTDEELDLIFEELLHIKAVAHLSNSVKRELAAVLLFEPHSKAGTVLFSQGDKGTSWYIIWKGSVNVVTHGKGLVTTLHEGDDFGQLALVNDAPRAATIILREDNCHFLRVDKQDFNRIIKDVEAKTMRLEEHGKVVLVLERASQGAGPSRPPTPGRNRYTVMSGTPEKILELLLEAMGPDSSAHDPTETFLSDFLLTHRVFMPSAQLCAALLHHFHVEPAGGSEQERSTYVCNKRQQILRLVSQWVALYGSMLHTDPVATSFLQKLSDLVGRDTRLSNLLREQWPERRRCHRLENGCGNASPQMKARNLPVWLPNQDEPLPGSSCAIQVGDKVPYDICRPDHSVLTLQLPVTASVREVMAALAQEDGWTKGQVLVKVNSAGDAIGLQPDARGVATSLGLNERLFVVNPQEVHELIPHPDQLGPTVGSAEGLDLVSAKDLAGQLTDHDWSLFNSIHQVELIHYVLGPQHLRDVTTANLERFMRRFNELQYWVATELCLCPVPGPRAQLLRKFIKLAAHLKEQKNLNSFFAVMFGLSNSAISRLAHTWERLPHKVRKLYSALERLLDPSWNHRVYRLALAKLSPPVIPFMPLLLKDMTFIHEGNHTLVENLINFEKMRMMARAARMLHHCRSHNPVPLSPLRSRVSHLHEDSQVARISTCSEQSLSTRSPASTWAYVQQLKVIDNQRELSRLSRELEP

**Q.** How did the “activity change, negative = inhibition” value turn out when `Cn1nccc1C(=O)NCC1CCC2(CCN(Cc3c(O)ccc4ccccc34)CC2)O1` (stereo not drawn) was run?
**A.** inactive: 8.24%

**Q.** How did the “activity change, negative = inhibition” value turn out when `C[C@]12C=CC(=O)C=C1CCC1C2C(=O)C[C@]2(C)C1CC[C@]2(O)C(=O)CO` (stereo partly drawn) was run?
**A.** inactive: 17.2%

**Q.** Which “activity change, negative = inhibition” value does the source give for `Cc1ccnc2c(Cl)cccc12` here?
**A.** inactive: 15.2%

**Q.** For `COc1ccc2c(c1)OC(C)CN(CCNC(=O)c1cc3cc(F)ccc3[nH]1)C2` (stereo not drawn), which “activity change, negative = inhibition” value is on record?
**A.** inactive: -9.54%

**Q.** With `CC(C)(C)c1ccc(C(=O)N2CCC3(CC2)CC3C(=O)NCCc2ccccn2)cc1` (stereo not drawn) as the compound, how does the “activity change, negative = inhibition” value read?
**A.** inactive: -4.57%

**Q.** Which “activity change, negative = inhibition” value does the source give for `CCNc1ncc2nc(-c3ccc(OC)cc3)c(=O)n(CCc3ccccc3)c2n1` here?
**A.** inactive: 15%

**Q.** How did the activity change, negative = inhibition turn out when `O=C1CC(c2ccc(O)cc2)Oc2cc(O)cc(O)c21` (stereo not drawn) was run?
**A.** inactive

**Q.** How did the “activity change, negative = inhibition” value turn out when `CN1CCN(c2ncc3nc(CCc4ccccc4)c(=O)n(CCC#N)c3n2)CC1` was run?
**A.** inactive: 2.36%

**Q.** How did the “activity change, negative = inhibition” value turn out when `O=C(c1cnccn1)N1CCC2(CCCN(C(c3ccccc3)c3ccccc3)C2)CC1` was run?
**A.** inactive: 10.9%

**Q.** Which activity change, negative = inhibition does the source give for `Cc1cn([C@H]2C=C[C@@H](CO)O2)c(=O)[nH]c1=O` here?
**A.** inactive

**Q.** Which “activity change, negative = inhibition” value does the source give for `CC(=O)N1CCC2(CCCN(c3ccccc3)C2)CC1` here?
**A.** inactive: 6.16%

**Q.** How did the “activity change, negative = inhibition” value turn out when `CC[C@H](C)[C@@H]1NC(=O)[C@H](Cc2ccc(O)cc2)NC(=O)[C@@H](N)CSSC[C@@H](C(=O)N2CCC[C@H]2C(=O)N[C@@H](CC(C)C)C(=O)NCC(N)=O)NC(=O)[C@H](CC(N)=O)NC(=O)[C@H](CCC(N)=O)NC1=O` was run?
**A.** inactive: 24.5%

**Q.** With `CS(=O)(=O)N1CCC2(CCCN(c3ccncc3)C2)CC1` as the compound, how does the “activity change, negative = inhibition” value read?
**A.** inactive: -1.36%

**Q.** For `CC(=O)NS(=O)(=O)c1ccc(N)cc1`, which activity change, negative = inhibition is on record?
**A.** inactive

**Q.** Which activity change, negative = inhibition does the source give for `CCc1cccc(N(C)C(N)=Nc2cccc3ccccc23)c1` here?
**A.** inactive

**Q.** How did the “activity change, negative = inhibition” value turn out when `Cc1noc(C)c1C(=O)N1CCC[C@@]2(CCN(c3cccc(-c4ccccc4)c3)C2)C1` was run?
**A.** inactive: 11.6%

**Q.** With `FC(F)(F)c1ccccc1-c1cncnc1-n1ccnc1` as the compound, how does the “activity change, negative = inhibition” value read?
**A.** inactive: 7.03%

**Q.** `CS(=O)(=O)Nc1cccc(-c2cncnc2Nc2ccc(F)cc2)c1` was tested. Which “activity change, negative = inhibition” value did it give?
**A.** inactive: 2.68%

**Q.** `C=C1CC[C@@H]2[C@](C)(CO)[C@H](O)CC[C@@]2(C)[C@@H]1C/C=C1/C(=O)OC[C@H]1O` was tested. Which “activity change, negative = inhibition” value did it give?
**A.** inactive: 18.7%

**Q.** How did the “activity change, negative = inhibition” value turn out when `Cc1c(C(=O)N(CCO)C(C)C)cnn1-c1ncc2c(n1)-c1ccccc1CCC2` was run?
**A.** inactive: 5.34%

**Q.** With `COc1ccc(-c2nc3cnc(N(C)C)nc3n(-c3ccccc3)c2=O)cc1` as the compound, how does the “activity change, negative = inhibition” value read?
**A.** inactive: 64.3%

**Q.** `CCN(CC)CCN(C)c1ccc(/C=C/c2ccnc3ccccc23)cc1` was tested. Which “activity change, negative = inhibition” value did it give?
**A.** inactive: 17%

**Q.** Which “activity change, negative = inhibition” value does the source give for `Brc1ccc2c(ccc[n+]2CCc2ccccc2)c1` here?
**A.** inactive: 25.3%

**Q.** Which activity change, negative = inhibition does the source give for `Ic1ccc(N2CCN(Cc3c[nH]c4ncccc34)CC2)cc1` here?
**A.** inactive

**Q.** With `CCCN(CC)C(CC)C(=O)Nc1c(C)cccc1C` (stereo not drawn) as the compound, how does the “activity change, negative = inhibition” value read?
**A.** inactive: -0.504%

**Q.** For `COc1cc(=O)n2c(c1C(=O)NCc1ccco1)CCN(Cc1cc3ccccc3[nH]1)CC2`, which “activity change, negative = inhibition” value is on record?
**A.** inactive: 10.5%

**Q.** How did the Potency turn out when `Nc1ncnc2c1nc(Br)n2C1OC2COP(=O)(O)O[C@@H]2C1O` (stereo partly drawn) was run?
**A.** active: 708 nM

**Q.** How did the “activity change, negative = inhibition” value turn out when `OCc1ccccc1O[C@@H]1O[C@H](CO)[C@@H](O)[C@H](O)[C@H]1O` was run?
**A.** inactive: 14.4%

**Q.** Which “activity change, negative = inhibition” value does the source give for `CNc1nc(-c2ccccc2C(F)(F)F)nc2ccccc12` here?
**A.** inactive: 2.64%

**Q.** For `O=C(O)[C@H]1CN(C/C=C/P(=O)(O)O)CCN1`, which “activity change, negative = inhibition” value is on record?
**A.** inactive: 15.5%

**Q.** `N#Cc1cccc(-c2cncnc2NCc2cccnc2)c1` was tested. Which “activity change, negative = inhibition” value did it give?
**A.** inactive: 2.16%

**Q.** For `CNc1nc(-c2cccc(NS(C)(=O)=O)c2)nc2ccccc12`, which “activity change, negative = inhibition” value is on record?
**A.** inactive: 9.01%

**Q.** How did the “activity change, negative = inhibition” value turn out when `CC1(C)N=C(N)N=C(N)N1c1ccc(Cl)cc1` was run?
**A.** inactive: 23.9%

**Q.** With `C[C@@H](NCCc1ccc(O)cc1)[C@@H](O)c1ccc(O)cc1` as the compound, how does the “activity change, negative = inhibition” value read?
**A.** inactive: -5.43% [at 75.8 µM]

**Q.** `COc1ccc(NS(=O)(=O)c2ccc(I)cc2)cc1N1CCN(C)CC1` was tested. Which “activity change, negative = inhibition” value did it give?
**A.** inactive: 8.02%

**Q.** With `COCC1CCCN(Cc2ccc3c(c2)CN(C(=O)c2ccnn2C)CCO3)C1` (stereo not drawn) as the compound, how does the “activity change, negative = inhibition” value read?
**A.** inactive: 22.3%

**Q.** How did the “activity change, negative = inhibition” value turn out when `COc1ccc(-n2c(=O)c(-c3cccs3)nc3cnc(Nc4ccccc4)nc32)cc1` was run?
**A.** inactive: 46.1%

**Q.** `COc1ccc(C(=O)N2CCC3(CC2)CCN(c2ncccn2)CC3)cc1` was tested. Which “activity change, negative = inhibition” value did it give?
**A.** inactive: 18.4%

**Q.** How did the “activity change, negative = inhibition” value turn out when `CN1C(CCl)Nc2cc(Cl)c(S(N)(=O)=O)cc2S1(=O)=O` (stereo not drawn) was run?
**A.** inactive: 12.1%

**Q.** For `c1ccc2c(CC3=NCCN3)cccc2c1`, which activity change, negative = inhibition is on record?
**A.** inactive

**Q.** How did the “activity change, negative = inhibition” value turn out when `CC(=O)OCC(=O)[C@@]12OC(C)(C)O[C@@H]1C[C@H]1[C@@H]3C[C@H](F)C4=CC(=O)C=C[C@]4(C)[C@@]3(F)[C@@H](O)C[C@@]12C` was run?
**A.** inactive: 5.07% [at 75.8 µM]

**Q.** `Cc1cc(C)c(CN2CCC3(CCC(CNC(=O)c4ccn(C)n4)O3)CC2)cc1C` (stereo not drawn) was tested. Which “activity change, negative = inhibition” value did it give?
**A.** inactive: -3.23%

**Q.** How did the “activity change, negative = inhibition” value turn out when `O=C(c1ccc(C(F)(F)F)cc1)N(Cc1cc2ccc(F)cc2nc1N1CCOCC1)C1CC1` was run?
**A.** inactive: 2.46%

**Q.** Which “activity change, negative = inhibition” value does the source give for `C[C@]12CCC3c4ccc(O)cc4CCC3C1CC(O)C2O` (stereo partly drawn) here?
**A.** inactive: 18.2%

**Q.** How did the “activity change, negative = inhibition” value turn out when `O=S(=O)(c1ccccc1)N1CCC2(CCN(C(c3ccccc3)c3ccccc3)CC2)CC1` was run?
**A.** inactive: 10.7%

**Q.** How did the “activity change, negative = inhibition” value turn out when `O=C(O)[C@@H]1C[C@H](C(=O)O)N1` was run?
**A.** inactive: 3.86% [at 75.8 µM]

**Q.** For `N#Cc1ccccc1-c1cncnc1NCc1cccnc1`, which “activity change, negative = inhibition” value is on record?
**A.** inactive: -16.1%

**Q.** For `CCC(=O)O[C@@H]1CC(=O)O[C@H](C)C/C=C/C=C/[C@H](O)[C@H](C)C[C@H](CC=O)[C@H](O[C@@H]2O[C@H](C)[C@@H](O[C@H]3C[C@@](C)(O)[C@@H](OC(=O)CC)[C@H](C)O3)[C@H](N(C)C)[C@H]2O)[C@H]1OC`, which “activity change, negative = inhibition” value is on record?
**A.** inactive: 13.4% [at 75.8 µM]

**Q.** How did the “activity change, negative = inhibition” value turn out when `COC(=O)c1cn([C@H]2C[C@@H](C(=O)N3CCCCCC3)N(Cc3ccsc3)C2)nn1` was run?
**A.** inactive: 1.09%

**Q.** With `COc1c(C)c2c(c(O)c1CC=C(C)CCC(=O)OCCN1CCOCC1)C(=O)OC2` as the compound, how does the “activity change, negative = inhibition” value read?
**A.** inactive: 6.34%

**Q.** With `COc1ccc(S(=O)(=O)N2c3ccc(Cl)cc3[C@@](O)(c3ccccc3Cl)[C@H]2C(=O)N2CCC[C@@H]2C(N)=O)cc1OC` as the compound, how does the “activity change, negative = inhibition” value read?
**A.** inactive: 12.8%

**Q.** How did the “activity change, negative = inhibition” value turn out when `CCc1noc(C)c1C(=O)NCCN1Cc2cc(OC)ccc2OC(CC)C1` (stereo not drawn) was run?
**A.** inactive: 19.3%

**Q.** `CCN(CC)CC(=O)Nc1c(C)cccc1C` was tested. Which activity change, negative = inhibition did it give?
**A.** inactive

**Q.** With `COC(=O)CC1C(C)(C)C(=O)C2CC3=C(CC[C@]4(C)C3=CC(=O)OC4c3ccoc3)[C@@]1(C)C2=O` (stereo partly drawn) as the compound, how does the “activity change, negative = inhibition” value read?
**A.** inactive: 13.7%

**Q.** Which “activity change, negative = inhibition” value does the source give for `Cc1ccc2ncc(C)c(/C=C/c3ccc(N(C)C)cc3)c2c1` here?
**A.** inactive: -1.87%

**Q.** How did the “activity change, negative = inhibition” value turn out when `CC(=O)Nc1ccc(SC[C@H](C)CN2CC[C@H](O)CCC2=O)cc1` was run?
**A.** inactive: 1.01%

**Q.** `O=C(c1cccc(F)c1)N1CCC2(CCCN(c3ccccn3)C2)CC1` was tested. Which “activity change, negative = inhibition” value did it give?
**A.** inactive: 5.53%

**Q.** With `O=C1NS(=O)(=O)c2ccccc21` as the compound, how does the activity change, negative = inhibition read?
**A.** inactive

**Q.** For `NS(=O)(=O)c1cc2c(cc1Cl)NC(C1CC3C=CC1C3)NS2(=O)=O` (stereo not drawn), which activity change, negative = inhibition is on record?
**A.** inactive

**Q.** For `c1ccc2c(N3CCNCC3)nc(-c3ccc4c(c3)OCO4)nc2c1`, which “activity change, negative = inhibition” value is on record?
**A.** inactive: -2.72%

**Q.** `C(=C\c1ccc2ccccc2n1)/c1ccc2ccccc2n1` was tested. Which “activity change, negative = inhibition” value did it give?
**A.** inactive: 19.1%

**Q.** For `c1coc(CNc2ncnc3nc[nH]c23)c1`, which “activity change, negative = inhibition” value is on record?
**A.** inactive: 13.6%

**Q.** `COc1ccc2[nH]cc(CCNc3ncncc3-c3cccc(C#N)c3)c2c1` was tested. Which “activity change, negative = inhibition” value did it give?
**A.** inactive: -0.921%
